# According to the antibiotic and cytotoxicity screens of Wong et al. (2023):
# Some of the results follow.
# How the values were obtained:
# HSkMC = human skeletal muscle cells; assay: cytotoxicity call (relative viability < 0.9); conditions: 10 µM
# HepG2 = assay: cytotoxicity call (relative viability < 0.9); conditions: 10 µM
# S. aureus RN4220 = assay: growth inhibition call (relative growth <= 0.2); conditions: 50 µM
Structure (SMILES),cytotoxicity call (HSkMC),cytotoxicity call (HepG2),growth inhibition call (S. aureus RN4220)
C[C@H](CO)N1C[C@H](C)[C@@H](CN(C)Cc2ccc3c(c2)OCO3)OCCCC[C@H](C)Oc2ccc(NS(=O)(=O)c3ccccc3)cc2C1=O,inactive,inactive,inactive
C[C@H]1CCCCO[C@@H](CN(C)C(=O)Nc2ccc(C(F)(F)F)cc2)[C@@H](C)CN([C@@H](C)CO)C(=O)c2cc(NS(=O)(=O)c3ccc(Cl)cc3)ccc2O1,inactive,inactive,inactive
Cc1noc(C)c1NC(=O)Nc1cccc2c1O[C@@H](CN(C)S(=O)(=O)c1cn(C)cn1)[C@H](C)CN([C@H](C)CO)C2=O,inactive,inactive,inactive
CCOC(=O)C1=C(N)Oc2ccc(Br)cc2[C@H]1[C@H](C#N)C(=O)OCC,inactive,inactive,inactive
C=CCNC(=O)[C@@H]1[C@H]2C(=O)O[C@H](c3ccccc3)[C@H](c3ccccc3)N2[C@H](c2ccc(OCCO)cc2)[C@@]12C(=O)N(C(=O)OCCOC)c1ccc(C#Cc3ccc(OC)cc3)cc12,inactive,inactive,inactive
C[C@H]1CN([C@@H](C)CO)C(=O)c2cccc(NS(=O)(=O)c3ccccc3)c2O[C@@H]1CN(C)Cc1ccncc1,inactive,inactive,inactive
C[C@@H]1CN([C@@H](C)CO)C(=O)CCCn2nncc2CO[C@H]1CN(C)S(=O)(=O)c1cccc(C#N)c1,inactive,inactive,inactive
COCC(=O)N1C[C@@H](C)[C@@H](OC)CN(C)C(=O)c2cc(NC(=O)Nc3ccccc3)ccc2OC[C@H]1C,inactive,inactive,inactive
C[C@H]1CN([C@@H](C)CO)C(=O)c2cccc(NS(=O)(=O)c3ccccc3)c2O[C@@H]1CN(C)S(=O)(=O)c1cn(C)cn1,inactive,inactive,inactive
Cc1noc(C)c1S(=O)(=O)Nc1cccc2c1O[C@H](CN(C)S(C)(=O)=O)[C@H](C)CN([C@@H](C)CO)C2=O,inactive,inactive,inactive
COc1ccc(NC(=O)N(C)C[C@@H]2Oc3ccc(NS(C)(=O)=O)cc3CC(=O)N([C@@H](C)CO)C[C@H]2C)cc1,inactive,inactive,inactive
C[C@@H]1CN([C@@H](C)CO)C(=O)c2cc(NC(=O)Nc3cccc4ccccc34)ccc2O[C@H]1CN(C)Cc1ccc2c(c1)OCO2,inactive,inactive,inactive
C[C@H](CO)N1C[C@H](C)[C@@H](CN(C)S(=O)(=O)c2ccccc2)Oc2cc(C#Cc3ccncc3)ccc2S1(=O)=O,inactive,active,inactive
Cc1ccc(S(=O)(=O)N(C)C[C@H]2OCCCC[C@H](C)Oc3ccc(NS(=O)(=O)c4ccc(F)cc4)cc3C(=O)N([C@H](C)CO)C[C@H]2C)cc1,inactive,inactive,inactive
O=C(Cn1nncc1COc1ccc2ccccc2c1)NS(=O)(=O)c1ccccc1OC(F)(F)F,inactive,inactive,inactive
CCOC(=O)C(=O)c1csc(NC=O)n1,inactive,inactive,inactive
C[C@@H]1CN([C@H](C)CO)C(=O)c2cccc(NC(=O)c3ccc(-c4nccs4)cc3)c2O[C@H]1CN(C)CC1CCCCC1,inactive,active,inactive
O=C(C[C@H]1C=C[C@@H](NC(=O)c2ccc(F)cc2)[C@@H](CO)O1)NCc1ccncn1,inactive,inactive,inactive
CCN(CC)CCNc1nc(=O)[nH]nc1C,inactive,inactive,inactive
C[C@@H]1CCCCO[C@H](CN(C)Cc2ccc(C(F)(F)F)cc2)[C@H](C)CN([C@H](C)CO)C(=O)c2cc(NS(=O)(=O)c3cn(C)cn3)ccc2O1,inactive,inactive,inactive
C[C@H]1CN([C@@H](C)CO)C(=O)Cc2cc(NC(=O)Nc3ccc(C(F)(F)F)cc3)ccc2O[C@H]1CN(C)CC1CCCCC1,active,active,inactive
COc1ccc2c3c([nH]c2c1)[C@H](CO)N(C[C@]13CCN(CC1)CC1CCCCC1)C(=O)Nc1cccc(c1)F,active,active,inactive
CC(=O)NCCCC[C@@H]1NC(=O)[C@@H]2C[C@H](C(=O)NCCCCN(C)C)[C@H](c3ccc(O)cc3)N2C1=O,inactive,inactive,inactive
C[C@@H]1CN([C@@H](C)CO)C(=O)c2cc(NC(=O)Nc3ccc(C(F)(F)F)cc3)ccc2O[C@@H](C)CCCCO[C@H]1CN(C)S(=O)(=O)c1cn(C)cn1,inactive,inactive,inactive
CC(=O)OCC(=O)C1(O)CCC2C3CCC4=CC(=O)CCC4(C)C3C(=O)CC21C (configuration not stated),inactive,inactive,inactive
CO[C@H]1CN(C)C(=O)c2cc(NC(=O)Nc3cccc(Cl)c3)ccc2OC[C@@H](C)N(C(=O)Nc2c(C)noc2C)C[C@H]1C,inactive,inactive,inactive
C[C@H](CO)N1C[C@H](C)[C@H](CN(C)S(=O)(=O)c2cn(C)cn2)OCc2cnnn2CCCC1=O,inactive,inactive,inactive

Structure (SMILES),cytotoxicity call (HSkMC),cytotoxicity call (HepG2),growth inhibition call (S. aureus RN4220)
Nc1cccc(=O)[nH]1,inactive,inactive,inactive
CC(C)CC#Cc1ccc2c(c1)O[C@H](CN(C)C(=O)C1CCOCC1)[C@@H](C)CN([C@@H](C)CO)S2(=O)=O,inactive,inactive,inactive
CC(C)CC#Cc1cnc2c(c1)C(=O)N([C@@H](C)CO)C[C@@H](C)[C@@H](CN(C)C(=O)CN1CCOCC1)O2,inactive,inactive,inactive
COC(=O)CNC(=O)C(=O)OC,inactive,inactive,inactive
C[C@@H]1CN([C@H](C)CO)C(=O)c2c(c3ccccc3n2C)-c2ccccc2CO[C@H]1CN(C)C(=O)CCC(F)(F)F,inactive,inactive,inactive
COc1ccc([C@H]2CC=CC[C@H](C)Oc3ccccc3C(=O)N(C)[C@@H](Cc3ccccc3)C(=O)N2)c(OC)c1,inactive,inactive,inactive
CC(C)NC(=O)Nc1ccc2c(c1)C(=O)N([C@H](C)CO)C[C@H](C)[C@H](CN(C)S(=O)(=O)c1ccc(F)cc1)O2,inactive,inactive,inactive
C[C@@H]1CCCCO[C@H](CN(C)S(=O)(=O)c2ccccc2)[C@H](C)CN([C@@H](C)CO)C(=O)c2cc(NS(=O)(=O)c3ccc(Cl)cc3)ccc2O1,inactive,inactive,inactive
Cc1ccc(-c2cnc3c(c2)C(=O)N([C@@H](C)CO)C[C@@H](C)[C@H](CN(C)C(=O)Cc2ccncc2)O3)cc1,inactive,inactive,inactive
C=CCOC(=O)[C@@H]1[C@H]2C(=O)O[C@H](c3ccccc3)[C@H](c3ccccc3)N2[C@H](c2ccc(OCCOC(=O)[C@@H]3C[C@@H]4C(=O)N[C@@H](CCCC[N+](C)(C)C)C(=O)N4[C@@H]3c3cccc(OCCO)c3)cc2)[C@@]12C(=O)Nc1ccccc12,inactive,inactive,inactive
COc1ccc(CN(C)C[C@H]2OCCCC[C@H](C)Oc3ccc(NC(=O)c4ccncc4)cc3C(=O)N([C@H](C)CO)C[C@H]2C)cc1,inactive,inactive,inactive
O=C1CN(/N=C/c2ccc([N+](=O)[O-])o2)C(=O)N1,inactive,active,active
Cc1cc(=O)n(-c2ccccc2)n1C,inactive,inactive,inactive
COc1ccccc1NC(=O)N(C)C[C@H]1Oc2ncc(Br)cc2C(=O)N([C@@H](C)CO)C[C@@H]1C,inactive,inactive,inactive
C[C@@H]1CN([C@@H](C)CO)C(=O)c2cccc(NC(=O)c3nc4ccccc4s3)c2O[C@@H]1CN(C)Cc1ccc(C(F)(F)F)cc1,inactive,inactive,inactive
COc1ccccc1CNC(=O)C[C@@H]1C[C@@H]2c3cc(NC(=O)c4ccc5c(c4)OCO5)ccc3O[C@@H]2[C@H](CO)O1,inactive,inactive,inactive
CO[C@@H]1CN(C)C(=O)c2cc(NC(=O)CCCC[C@@H]3SC[C@@H]4NC(=O)N[C@@H]43)ccc2OC[C@@H](C)N(Cc2ccc(-c3ccccn3)cc2)C[C@@H]1C,inactive,inactive,inactive
COCC(=O)N(C)C[C@@H]1Oc2cc(C#CCN(C)C)ccc2S(=O)(=O)N([C@H](C)CO)C[C@H]1C,inactive,inactive,inactive
C[C@@H]1CCCCO[C@@H](CN(C)C(=O)C2CCCCC2)[C@H](C)CN([C@H](C)CO)C(=O)c2cc(NC(=O)Nc3ccc4c(c3)OCO4)ccc2O1,inactive,inactive,inactive
COc1ccc(C=Cc2cc(O)cc(O[C@@H]3O[C@H](CO)[C@@H](O)[C@H](O)[C@H]3O)c2)cc1,inactive,inactive,inactive
C[C@@H]1CCCCO[C@H](CN(C)C(=O)Nc2ccc(C(F)(F)F)cc2)[C@@H](C)CN([C@@H](C)CO)C(=O)c2cc(NC(=O)c3ccncc3)ccc2O1,inactive,inactive,inactive
C[C@H]1CN([C@@H](C)CO)C(=O)Cc2cc(NC(=O)Nc3ccc(F)cc3)ccc2O[C@H]1CN(C)C(=O)Nc1cccc2ccccc12,inactive,inactive,inactive
Cc1ccc(S(=O)(=O)Nc2ccc3c(c2)C(=O)N([C@H](C)CO)C[C@@H](C)[C@@H](CN(C)Cc2ccc4c(c2)OCO4)OCCCC[C@@H](C)O3)cc1,inactive,active,inactive
C[C@@H]1CCCCO[C@@H](CN(C)C(=O)Nc2ccc(F)cc2)[C@H](C)CN([C@H](C)CO)C(=O)c2cc(NC(=O)CCCN(C)C)ccc2O1,inactive,inactive,inactive
O=C(Cn1cc(COc2ccc(-n3cccc3)cc2)nn1)NS(=O)(=O)c1cccc(OC(F)F)c1,inactive,inactive,inactive
CC(C)NC(=O)N(C)C[C@H]1Oc2ccc(NC(=O)C3CCCCC3)cc2CC(=O)N([C@H](C)CO)C[C@@H]1C,inactive,active,inactive
Cc1noc(C)c1NC(=O)Nc1ccc2c(c1)C(=O)N([C@H](C)CO)C[C@H](C)[C@H](CN(C)C(=O)NC1CCCCC1)OCCCC[C@@H](C)O2,inactive,inactive,inactive
